Four compounds from ChEMBL document CHEMBL5046221, “Identification of Pyrimidine-Based Lead Compounds for Understudied Kinases Implicated in Driving Neurodegeneration” (J Med Chem, 2022) can be followed below.

Each structure is given as a SMILES string. Activity calls are given as the source filed them. The rule behind the calls is not given here.

For assay [1], the target named is Phosphatidylinositol 4-phosphate 5-kinase type-1 alpha (Homo sapiens, UniProt Q99755). The experiment in a line: Inhibition of full length recombinant human PIP5K1A using phosphatidylinositol 4-phosphate/phosphatidylserine as substrate incubated for 30 mins in presence of ATP by fluorescence based HTRF assay. In general terms: TR-FRET usually uses a lanthanide donor and a delayed reading to cut background.
Sequence of UniProt Q99755 (Q99755 whole entry): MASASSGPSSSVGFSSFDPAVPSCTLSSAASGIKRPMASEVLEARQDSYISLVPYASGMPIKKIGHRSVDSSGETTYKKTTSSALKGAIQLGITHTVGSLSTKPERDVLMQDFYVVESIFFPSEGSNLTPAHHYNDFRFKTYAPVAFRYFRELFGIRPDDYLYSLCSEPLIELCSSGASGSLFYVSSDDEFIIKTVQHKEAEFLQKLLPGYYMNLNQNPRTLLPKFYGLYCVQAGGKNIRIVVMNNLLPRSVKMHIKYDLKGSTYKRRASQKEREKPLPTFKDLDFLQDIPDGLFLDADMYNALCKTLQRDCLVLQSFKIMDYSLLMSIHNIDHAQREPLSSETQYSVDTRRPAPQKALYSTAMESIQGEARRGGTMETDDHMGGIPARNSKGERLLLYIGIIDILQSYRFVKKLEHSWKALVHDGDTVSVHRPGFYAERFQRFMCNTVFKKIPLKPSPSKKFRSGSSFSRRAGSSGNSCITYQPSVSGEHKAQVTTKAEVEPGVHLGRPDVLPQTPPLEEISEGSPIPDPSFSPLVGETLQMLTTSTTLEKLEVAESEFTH

Assay [2] concerns the target Casein kinase II subunit alpha' (Homo sapiens, UniProt P19784). Put plainly: Inhibition of full length recombinant human CSNK2A2 using RRRDDDSDDD a substrate incubated for 40 mins in presence of [gamma-33P-ATP] by radiometric scintillation assay. An outline of the steps:
(§1)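 Eurofins radiometric enzymatic assay with ATP at Km for each kinase. IC50 was derived from a 9-point dose–response curve run in duplicate.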

Assay [3] addresses T1, NUAK family SNF1-like kinase 1 (Homo sapiens, UniProt O60285).
T1 sequence (O60285 whole entry): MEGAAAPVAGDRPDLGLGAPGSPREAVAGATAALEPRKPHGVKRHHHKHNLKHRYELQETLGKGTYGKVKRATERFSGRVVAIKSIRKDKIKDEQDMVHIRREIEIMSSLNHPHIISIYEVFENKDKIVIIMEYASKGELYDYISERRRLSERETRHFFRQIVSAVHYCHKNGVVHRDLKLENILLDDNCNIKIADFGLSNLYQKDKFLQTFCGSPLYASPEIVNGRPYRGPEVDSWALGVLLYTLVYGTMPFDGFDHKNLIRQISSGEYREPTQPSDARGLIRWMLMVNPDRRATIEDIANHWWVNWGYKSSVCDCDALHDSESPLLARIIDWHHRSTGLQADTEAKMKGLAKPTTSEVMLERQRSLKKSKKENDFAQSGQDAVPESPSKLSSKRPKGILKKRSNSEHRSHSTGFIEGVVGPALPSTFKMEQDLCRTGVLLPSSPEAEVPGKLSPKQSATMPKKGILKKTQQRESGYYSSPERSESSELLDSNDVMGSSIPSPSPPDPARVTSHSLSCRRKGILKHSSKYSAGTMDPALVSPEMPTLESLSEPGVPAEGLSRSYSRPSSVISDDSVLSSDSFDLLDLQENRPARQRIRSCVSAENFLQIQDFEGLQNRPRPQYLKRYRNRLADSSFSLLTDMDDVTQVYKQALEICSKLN
The experiment in a line: Inhibition of NanoLuc-fused NUAK1 (unknown origin) expressed in HEK293 cells incubated for 2 hrs by NanoBRET assay. Format: cell-based. An outline of the steps: (§2)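 Cellular NanoBRET target-engagement assays were run by Carna Biosciences to the manufacturer's protocol. Dose–response was in singlicate, with compounds tested at concentrations up to 10 μM.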
For orientation: BRET reads energy transfer from a luciferase to a nearby fluorophore.

In assay [4] the target is AP2-associated protein kinase 1 (Homo sapiens, UniProt Q2M2I8). Put plainly: Inhibition of human AAK1 using peptide as substrate incubated for 120 mins in presence of [gamma-33ATP] by scintillation counting based radiometry assay. An outline of the steps:
(§3)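 Eurofins radiometric kinase assay run at ATP equal to Km for each kinase. 9-point dose–response in duplicate gives the IC50.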

Assay [5] addresses Non-receptor tyrosine-protein kinase TYK2 (Homo sapiens, UniProt P29597). Put plainly: Inhibition of human TYK2 (875 to end residues) using GGMEDIYFEFMGGKKK as substrate measured after 40 mins in presence of [gamma33P]ATP by radiometric scintillation counting method. An outline of the steps:
as §1

In assay [6] the target is Serine/threonine-protein kinase 16 (Homo sapiens, UniProt O75716). Put plainly: Inhibition of human STK16 in presence of [gamma-33P-ATP] by radiometric scintillation assay. The method, boiled down: as §3
Sequence of UniProt O75716 (O75716 whole entry): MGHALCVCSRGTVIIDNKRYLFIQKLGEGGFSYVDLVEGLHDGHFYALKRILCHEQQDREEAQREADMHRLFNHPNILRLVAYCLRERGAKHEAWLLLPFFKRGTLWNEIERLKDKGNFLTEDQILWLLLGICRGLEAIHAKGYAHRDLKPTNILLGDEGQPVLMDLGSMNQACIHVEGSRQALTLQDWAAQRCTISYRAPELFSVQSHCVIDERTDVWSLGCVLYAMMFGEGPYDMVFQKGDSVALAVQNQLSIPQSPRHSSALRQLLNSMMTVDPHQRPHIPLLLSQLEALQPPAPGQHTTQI
Assay [7] concerns the target T2, NUAK family SNF1-like kinase 2 (Homo sapiens, UniProt Q9H093).
T2 sequence (Q9H093 whole entry): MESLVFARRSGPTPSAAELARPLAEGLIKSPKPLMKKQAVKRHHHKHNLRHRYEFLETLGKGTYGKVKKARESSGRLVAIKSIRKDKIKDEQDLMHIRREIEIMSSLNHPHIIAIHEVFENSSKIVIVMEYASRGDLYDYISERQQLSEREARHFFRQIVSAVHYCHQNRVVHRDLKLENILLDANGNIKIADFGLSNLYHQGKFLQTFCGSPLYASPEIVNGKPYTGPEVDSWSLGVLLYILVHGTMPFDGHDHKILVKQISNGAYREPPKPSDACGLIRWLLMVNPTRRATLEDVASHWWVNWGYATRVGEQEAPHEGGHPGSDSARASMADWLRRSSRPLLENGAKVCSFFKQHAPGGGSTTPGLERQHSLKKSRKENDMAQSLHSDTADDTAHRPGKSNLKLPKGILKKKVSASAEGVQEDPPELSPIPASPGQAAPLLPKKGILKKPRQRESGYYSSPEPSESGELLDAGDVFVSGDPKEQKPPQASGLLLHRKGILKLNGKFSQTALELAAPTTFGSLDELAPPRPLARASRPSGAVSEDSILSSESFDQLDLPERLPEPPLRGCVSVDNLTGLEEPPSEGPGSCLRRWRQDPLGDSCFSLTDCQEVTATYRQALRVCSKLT
Put plainly: Inhibition of full length recombinant human NUAK2 using KKKVSRSGLYRSPSMPENLNRPR as substrate incubated for 40 mins in presence of [gamma-33P-ATP] by radiometric scintillation assay. The method, boiled down:
as §1

Assay [8] deals with T3, BMP-2-inducible protein kinase (Homo sapiens, UniProt Q9NSY1). Put plainly: Inhibition of recombinant human BIKe using peptide as substrate incubated for 120 mins in presence of [gamma-33ATP] by scintillation counting based radiometry assay. The method, boiled down:
as §1

Assay [9] has as its target T3, BMP-2-inducible protein kinase. Put plainly: Inhibition of NanoLuc-fused BMP2K (unknown origin) expressed in HEK293 cells incubated for 2 hrs by NanoBRET assay. Format: cell-based. An outline of the steps:
as §2

Assay [10] has as its target Macrophage colony-stimulating factor 1 receptor (Homo sapiens, UniProt P07333). Put plainly: Inhibition of recombinant human FMS (538 to end residues) using KKKSPGEYVNIEFG as substrate measured after 40 mins in presence of [gamma33P]ATP by radiometric scintillation counting method. The method, boiled down: as §3
Sequence of UniProt P07333 (P07333 whole entry): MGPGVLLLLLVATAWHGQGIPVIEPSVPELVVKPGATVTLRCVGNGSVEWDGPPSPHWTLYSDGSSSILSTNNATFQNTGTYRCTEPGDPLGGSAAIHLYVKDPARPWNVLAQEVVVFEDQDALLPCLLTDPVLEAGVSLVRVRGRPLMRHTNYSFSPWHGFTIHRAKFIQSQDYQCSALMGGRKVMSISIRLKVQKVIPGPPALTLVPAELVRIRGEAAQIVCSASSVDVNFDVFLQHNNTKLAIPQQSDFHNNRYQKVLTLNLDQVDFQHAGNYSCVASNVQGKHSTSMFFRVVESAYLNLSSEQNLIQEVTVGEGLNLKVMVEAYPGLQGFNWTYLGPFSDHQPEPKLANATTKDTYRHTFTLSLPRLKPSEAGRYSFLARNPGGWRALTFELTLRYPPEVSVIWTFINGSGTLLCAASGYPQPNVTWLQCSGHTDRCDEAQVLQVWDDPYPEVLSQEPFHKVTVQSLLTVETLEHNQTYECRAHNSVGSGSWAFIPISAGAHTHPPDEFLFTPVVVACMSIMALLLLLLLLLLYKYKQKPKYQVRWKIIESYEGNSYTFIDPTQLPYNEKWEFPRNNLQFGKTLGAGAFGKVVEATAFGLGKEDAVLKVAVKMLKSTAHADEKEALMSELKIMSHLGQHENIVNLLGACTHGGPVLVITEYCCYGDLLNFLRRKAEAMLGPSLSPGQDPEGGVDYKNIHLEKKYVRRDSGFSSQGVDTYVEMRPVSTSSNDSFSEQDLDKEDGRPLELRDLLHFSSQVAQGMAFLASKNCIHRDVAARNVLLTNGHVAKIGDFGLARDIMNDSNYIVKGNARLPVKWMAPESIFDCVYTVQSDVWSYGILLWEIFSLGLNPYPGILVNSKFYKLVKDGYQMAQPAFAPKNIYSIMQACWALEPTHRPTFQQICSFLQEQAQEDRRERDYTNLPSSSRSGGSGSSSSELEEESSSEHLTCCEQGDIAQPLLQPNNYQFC
The target in assay [11] is T4, Serine/threonine-protein kinase ULK3 (Homo sapiens, UniProt Q6PHR2).
T4 sequence (Q6PHR2 whole entry): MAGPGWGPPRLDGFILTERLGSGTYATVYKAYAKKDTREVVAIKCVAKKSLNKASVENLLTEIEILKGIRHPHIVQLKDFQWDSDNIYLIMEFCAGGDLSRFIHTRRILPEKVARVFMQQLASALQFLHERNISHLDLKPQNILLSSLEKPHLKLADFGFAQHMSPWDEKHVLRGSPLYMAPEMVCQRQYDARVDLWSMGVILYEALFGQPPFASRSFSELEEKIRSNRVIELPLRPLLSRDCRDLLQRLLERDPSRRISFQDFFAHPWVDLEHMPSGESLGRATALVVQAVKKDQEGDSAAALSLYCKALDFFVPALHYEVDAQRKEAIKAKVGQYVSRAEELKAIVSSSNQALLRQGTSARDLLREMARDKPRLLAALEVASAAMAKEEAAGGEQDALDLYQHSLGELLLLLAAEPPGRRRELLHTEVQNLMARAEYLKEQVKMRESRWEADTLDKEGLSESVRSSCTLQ
Put plainly: Inhibition of full length recombinant human ULK3 using casein as substrate incubated for 40 mins in presence of [gamma-33P-ATP] by radiometric scintillation assay. An outline of the steps:
as §1

Sequence of UniProt P19784 (P19784 whole entry): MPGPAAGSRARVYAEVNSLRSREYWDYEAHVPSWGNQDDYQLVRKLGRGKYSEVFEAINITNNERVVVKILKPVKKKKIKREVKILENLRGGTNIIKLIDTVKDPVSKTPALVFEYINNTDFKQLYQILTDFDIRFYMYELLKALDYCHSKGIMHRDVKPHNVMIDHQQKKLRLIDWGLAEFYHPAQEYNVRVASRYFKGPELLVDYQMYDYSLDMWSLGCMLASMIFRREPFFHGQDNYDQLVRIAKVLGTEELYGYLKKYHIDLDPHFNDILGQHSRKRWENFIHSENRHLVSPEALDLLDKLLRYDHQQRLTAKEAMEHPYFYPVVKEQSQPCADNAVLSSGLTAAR
Sequence of UniProt P29597 (P29597 whole entry): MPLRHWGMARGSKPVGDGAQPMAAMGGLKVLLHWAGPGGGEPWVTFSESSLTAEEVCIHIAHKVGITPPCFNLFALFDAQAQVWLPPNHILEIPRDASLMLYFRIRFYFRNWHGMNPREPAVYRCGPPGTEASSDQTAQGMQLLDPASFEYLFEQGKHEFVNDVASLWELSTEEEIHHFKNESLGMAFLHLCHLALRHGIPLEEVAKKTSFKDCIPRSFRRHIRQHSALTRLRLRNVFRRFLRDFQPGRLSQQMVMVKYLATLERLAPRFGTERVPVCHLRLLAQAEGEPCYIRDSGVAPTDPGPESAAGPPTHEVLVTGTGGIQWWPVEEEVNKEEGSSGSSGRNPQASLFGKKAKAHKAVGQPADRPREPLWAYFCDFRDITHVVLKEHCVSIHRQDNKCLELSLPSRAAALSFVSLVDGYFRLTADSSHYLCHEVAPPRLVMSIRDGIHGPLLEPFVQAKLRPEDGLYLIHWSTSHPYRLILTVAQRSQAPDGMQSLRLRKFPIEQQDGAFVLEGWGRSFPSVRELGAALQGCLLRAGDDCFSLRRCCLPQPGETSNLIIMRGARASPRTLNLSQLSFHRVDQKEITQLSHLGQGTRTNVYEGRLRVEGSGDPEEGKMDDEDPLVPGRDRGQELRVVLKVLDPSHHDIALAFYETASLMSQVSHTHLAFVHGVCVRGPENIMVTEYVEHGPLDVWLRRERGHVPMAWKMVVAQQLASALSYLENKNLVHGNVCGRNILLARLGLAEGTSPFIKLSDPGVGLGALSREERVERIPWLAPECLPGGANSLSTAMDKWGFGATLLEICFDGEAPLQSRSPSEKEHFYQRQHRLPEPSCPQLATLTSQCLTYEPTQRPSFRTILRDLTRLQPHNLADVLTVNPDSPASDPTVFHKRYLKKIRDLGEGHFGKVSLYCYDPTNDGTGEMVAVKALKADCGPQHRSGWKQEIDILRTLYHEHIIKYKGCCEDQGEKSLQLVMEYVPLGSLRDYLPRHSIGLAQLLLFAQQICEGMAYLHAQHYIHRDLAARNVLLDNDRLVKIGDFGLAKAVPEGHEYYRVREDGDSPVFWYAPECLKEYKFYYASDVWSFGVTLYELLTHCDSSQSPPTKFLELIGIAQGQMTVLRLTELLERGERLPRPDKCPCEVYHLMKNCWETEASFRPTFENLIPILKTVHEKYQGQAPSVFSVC

The IC50 is the concentration at which inhibition is half-maximal. In the case of `NS(=O)(=O)c1ccc(CNc2nc(Nc3cccc(NC(=O)N4CCCC4)c3)ncc2Br)cc1`, the IC50 is above 10000 nM in assay [1]; 2270 nM in [2]; above 10000 nM in [3]; 74 nM in assay [4]; 48 nM in assay [5]; 82 nM in assay [6]. The values for the IC50 in assay [7], in assay [8] and in [9] were 900 nM, 40 nM and 3000 nM, respectively. Besides, the inhibition entry in [4] and in [8] was “Active” throughout.

As to `NS(=O)(=O)c1ccc(CNc2nc(Nc3cccc(CN4CCOCC4)c3)ncc2Br)cc1`, the IC50 was above 10000 nM in [1]; 2300 nM in [2]; 192 nM in assay [10]; 1370 nM in [11]; 7010 nM in [3]; 80 nM in [4]. In addition, the IC50 in assay [5] came to 67 nM; in [6] it was 88 nM; in assay [8], 38 nM; in assay [9] it was 1020 nM. Moreover, the inhibition result in [8] was “Active”.

As to `Cc1nn(CC(F)(F)F)cc1Nc1ncc(Br)c(NCc2ccc(S(N)(=O)=O)cc2)n1`, the IC50 in assay [10] came to 264 nM; in assay [11] it was 946 nM; in assay [7], 1150 nM.

For the compound `Cc1nn(CC(F)(F)F)cc1Nc1ncc(C2CC2)c(NCCCNC(=O)C2CCC2)n1`, the IC50 in assay [11] turned out to be 343 nM.
